The campaign covered roughly 150,000 compounds. About 540 (0.36%) showed an effect of 50% or more. Some of the results follow.
test system: Plasmodium falciparum; assay: Primary screen in NF54 nanoGlo assay, in single point, at 2uM, 72h; a lower Z score goes with more inhibition; assay type: functional, Erythrocyte; settings: timepoint 72 hour

Compound | % Inhibition [%] | Z score
Cc1cnc(C[C@H]2CCN(S(=O)(=O)c3ccc4c(c3)OCCO4)C2)n1C1CC1 | -11 | 1.33
CC(=O)N[C@@H](CC(=O)OCC(=O)Nc1cc(C(C)(C)C)nn1-c1ccccc1Cl)c1ccccc1 | -4 | 0.93
Cc1ccccc1CNC(=O)c1nn[nH]c1Nc1ccccc1F | -1 | 0.18
Cc1nnc(NC(=O)c2nn(Cc3ccccc3)c(=O)c3ccccc23)o1 | 8 | -1.09
CC(C)c1nn(-c2ccccc2)c(Oc2ccccc2F)c1CN(C[C@H](O)COCc1ccccc1)C1CC1 | 0 | -0.06
O=C(NCc1ccc2[nH]cnc2c1)c1cc(C(F)F)n[nH]1 | -9 | 1.8
Cc1cc(C(=O)Nc2cncc(F)c2)no1 | -14 | 2.75
COc1ccc([C@@H]2CCCN2C(=O)c2cnc(C)cn2)cc1OC | 2 | -0.14
CC1(C)N(O)C(c2ccc[nH]2)N(O)C1(C)C | 6 | -0.82
COc1c(C(=O)N2CCN(C(C)(C)C)CC2)c(C)nn1C | 4 | -0.65
CCOc1nc(-c2ccccc2)c(S(=O)(=O)c2ccc(Cl)cc2)s1 | 1 | -0.18
Cc1nscc1C(=O)Nc1cc(CS(C)(=O)=O)ccc1Cl | 9 | -1.22
CCOc1cccc2nnc(NC(=O)NCc3ccc(C)cc3)n12 | -5 | 0.62
COc1ccc(/C=C/CN2CCN(CC(C)C)[C@@H]3CS(=O)(=O)C[C@@H]32)cc1 | -11 | 1.11
CC(=O)c1ccc(N2C(=O)[C@H]3[C@@H](C2=O)[C@]2(C(=O)Nc4ccc(C)cc42)N2CCC[C@@H]32)cc1 | -12 | 1.48
Cc1nc[nH]c1CN1CCC[C@H](CCNC(=O)NC2CCCC2)C1 | -7 | 0.89
Fc1ccc([C@@H]2Cc3ccccc3N2)cc1 | 2 | -0.26
Cc1noc(C)c1S(=O)(=O)N[C@@H](C)c1nc2c(s1)CCCC2 | -6 | 1.11
Cc1ccc2oc([C@H]3CCN(Cc4cccc(Cl)c4)C3)nc2c1 | 14 | -1.59
COCCn1ncc(N2CC[C@H](C(=O)N(C)Cc3ccc(N4CCN(C)CC4)cc3)C2)cc1=O | -10 | 1.9
O=C(NCc1ccccc1F)[C@@H]1CCCN1c1nnc(N2CCCC2=O)s1 | 6 | -0.93

Compound | % Inhibition [%] | Z score
CC(C)N(CCc1nc(-c2ccccc2)no1)C(=O)Cc1ccc(F)cc1 | -10 | 1.33
Cc1cc(S(=O)(=O)N2CCN(Cc3ncccc3Cl)CC2)c(C)s1 | -11 | 1.35
CNc1nc(NC[C@H]2CCCN(C3CCCC3)C2)ncc1F | 10 | -1.73
O=C(NCc1cccnc1)N1CCN(c2nccs2)CC1 | -2 | 0.22
CCOc1ccccc1-c1nc(CN2CCN(c3cccc(OC)c3)C(=O)C2)c(C)o1 | -3 | 0.63
CN(CCc1c[nH]c2ccc(O)cc12)C[C@]1(c2ccc(F)cc2)CCOC1 | -7 | 1.01
CCN1CCC(NC(=O)Nc2ccc(C)s2)CC1C (stereo not drawn) | -6 | 0.76
CC(NC(=O)C1C2C=CC(C2)C1C(=O)O)c1nc(C(C)(C)C)cs1 (stereo not drawn) | -4 | 0.54
Cn1c(CNC(=O)NCc2cc(Cl)c(Cl)n2C)cc(Cl)c1Cl | 34 | -4.4
O=C(NCC(=O)N1CCC[C@]2(CC=CCC2)C1)c1ccc(C(F)(F)F)cc1 | 3 | -0.33
N#Cc1ncn(CC(=O)c2c[nH]c3ccccc23)c1C#N | 2 | -0.36
Cc1cc(C[C@H](C)n2cnc3cccc(F)c3c2=O)[nH]n1 | 12 | -1.63
C[C@@H](c1ncnn1-c1ccncc1)N1CCN(C)CC1 | -17 | 3.35
CC[C@H](C)N(C)CCNC(=O)c1ccc(OC)c(OC(F)F)c1 | -13 | 1.36
C[C@H](NCc1cncs1)c1ccc(Cl)cc1Cl | -12 | 1.77
C[C@@H](c1nc2ccccc2n1C(F)F)N1CCC(c2nnc[nH]2)CC1 | 18 | -2.3
CCn1cnnc1CN1CC[C@@]2(CCCN(C3CCCCC3)C2=O)C1 | 10 | -1.93
CC(C)NC(=O)[C@H](C)Oc1ccc(C(N)=O)cc1 | -3 | 0.43
CO[C@H]1CN(C(=O)c2cccc3ccccc23)C[C@@H]1O | -11 | 1.55
O=C1CCCN1c1cccc(C(=O)N2CCC[C@H]2c2ccc3c(c2)OCCO3)c1 | 5 | -0.85
CCOCCNC(=O)Cn1cccnc1=O | -2 | 0.21

Compound | % Inhibition [%] | Z score
Cc1cc(C)n2c(C(=O)NCc3cc(CC(C)C)no3)nnc2n1 | -5 | 0.44
COCCOc1nc(-c2ccc(F)cc2)n(-c2cccc(NC(=O)Nc3ccc(OC)cc3)c2)n1 | 2 | -0.19
Cc1ccccc1C(=O)NCCC(=O)N1CCCC1C1CCCN(Cc2ccccc2)C1 (stereo not drawn) | -7 | 0.66
CC1(C)CN(CCC2OCCO2)CCN1CCC1OCCO1 | -1 | 0.11
CN(Cc1cnccn1)C(=O)[C@H](O)C1CCCCC1 | -6 | 0.9
CN(Cc1ccccc1)c1nc2nonc2nc1N1CCC[C@H](CN2CCCC2=O)C1 | -26 | 2.33
Cc1cccc2c(-c3nc(N)c4cnn(C)c4n3)c[nH]c12 | 13 | -1.82
Cc1ccccc1C1=CCN(C(=O)c2cccnc2OCCO)C1 | 2 | -0.22
COc1ccc(F)c(-c2cc(N)nc(N(C)C)n2)c1 | -15 | 2.16
Cc1cccc(Cl)c1N1C(=O)[C@@H]2CS(=O)(=O)CCN2C1=O | 1 | -0.12
Cn1nncc1COc1cc(F)cc(F)c1 | -14 | 1.59
CCOC(=O)c1ncn(Cc2ccc3c(c2)OCO3)c1N | -12 | 1.19
COc1cc2c(cc1NC(=O)NCCNc1nc(C)cc(=O)[nH]1)OCO2 | -9 | 1.18
Cc1nc(NC(=O)N2CCN(c3cn[nH]c(=O)c3)CC2)nn1C(C)C | -8 | 1.53
CCOCCO/C(=N/C(=O)c1ccc(C)cc1)NCc1ccccc1 | -16 | 2.05
COC(=O)c1nc(NC(=O)COc2cn(C)c(C)cc2=O)sc1-c1ccccc1Cl | -11 | 1.25
C[C@H]1[C@@H](NCc2cccc(Cl)c2F)CCS1(=O)=O | -2 | 0.41
CCN1CCN(C(=O)[C@]2(C)CCCCO2)CC1(C)C | -7 | 1.28
O=C(O)Cn1nc(-c2ccncc2)nc1-c1ccc(Cl)cc1F | 1 | -0.16
CC(=O)Nc1ccc(S(=O)(=O)NC(=O)c2n[nH]c(C)c2C)cc1 | -17 | 2.56
CC(C)NC(=O)NC[C@H]1O[C@@H](Cc2nc(-c3ccc(F)cc3)no2)[C@H](O)[C@@H]1O | 31 | -3.47

Compound | % Inhibition [%] | Z score
CC(C)CN(CC(=O)N1CCc2sccc2[C@@H]1COc1ccc(F)cc1)C(=O)Nc1cccc(Cl)c1 | -9 | 0.88
Cn1cc(CN2CCc3ccccc3C2)cn1 | -3 | 0.23
CC(C)c1noc(-c2ccc(N(C)C[C@H](O)c3ccccc3)nc2)n1 | -11 | 1.42
COC(=O)[C@@H]1C[C@H](O)CCN1C(=O)c1nn(C)c2ccc(C)cc12 | -11 | 2.01
Cc1cnc(C(=O)NCc2nccnc2-c2ccncc2)cn1 | 15 | -1.9
CCn1ncc(CN2CCN(C(=O)c3nn(C)cc3Cl)CC2)c1C | -10 | 1.34
CN(C)c1cncc(O[C@H]2CCN(C(=O)c3noc4c3CCCC4)C2)n1 | -10 | 1.55
O=C1NC2(CCCC2)C(=O)N1Cc1cc(Cl)c2c(c1)OCO2 | -6 | 0.56
COc1cc(NC(=O)C2CCN(S(=O)(=O)c3cc4c(cc3C)NC(=O)CO4)CC2)cc(OC)c1 | 9 | -1.06
Cc1nn(C)c2c(N3CCC[C@H](C(=O)NCc4cccnc4)C3)nccc12 | -13 | 2.16
Cc1cc(CS(=O)(=O)CC(=O)NC2CCCCCC2)no1 | -18 | 2.31
O=C(c1c[nH]c(=O)c(C(F)(F)F)c1)N1CCCC[C@H]1c1ccco1 | 0 | -0.05
COc1ccc(-n2ncc3c2CC(C)(C)C[C@@H]3NC(=O)CCN2CCCC2=O)cc1 | 4 | -0.36
CC(=O)N[C@@H](CC(=O)N1CCCCCCC1)c1c(F)cccc1F | 6 | -1
CC(C)c1ccc(C#N)c(-c2ccc(N(C)C)nc2)n1 | -6 | 0.96
CCC[C@H](C)c1cn(CCn2cccn2)nn1 | -13 | 2.46
O=C(Cc1cnc2ncnn2c1)N[C@H]1CCCN(C2CCCCCC2)C1 | -26 | 2.36
CC(NS(=O)(=O)CCC1CCOC1)C1CC2CCC1C2 (stereo not drawn) | -6 | 0.91
CN(C(=O)[C@H]1C[C@@H]1C1CC1)c1nncs1 | 11 | -1.09
Cc1sc(C2(NCc3cnn(C(C)(C)C)c3)CCC2)nc1-c1ccccc1F | -5 | 0.69
CNc1cccc(-c2ccncc2C2CC2)c1 | -3 | 0.37
